Measurements as given in PubChem BioAssay (NCI).
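Protocol summary: plate cells (96-well), add compound at 5 concentrations, incubate 48 h, interpolate endpoints linearly. GI50: concentration for 50% inhibition of growth. TGI marks complete inhibition of growth.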

Tested on: NCI-H322M lung
Assay: NCI tumour cell line growth inhibition, 48 h

Structure (SMILES) | GI50 | TGI
COc1cc2c(c(OC)c1OC)C(=O)CC(c1cccc(NC(=O)c3cc(NC(=O)[C@H](C)N)ccc3Cl)c1)O2 (stereo partly drawn) | 16.2 µM | 30.3 µM
Cc1oc(-c2ccccc2)nc1CN[C@@H]1C[C@@H]2C[C@H]([C@H]1C)C2(C)C | 13.3 µM | 26 µM
COc1ccc2[nH]c(=O)c(CSc3nccc(-c4ccc(Cl)cc4)n3)cc2c1 | 19.8 µM | 57.5 µM
COc1ccc2[nH]c(O)c(N=Nc3nc(-c4ccc(Br)cc4)cs3)c2c1 | 8.02 µM | > 100 µM
